Where “and” joins values, the source holds several entries; their conditions need not be identical. Identical values can stand only once.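 Each compound was tested at five concentrations against cells in 96-well plates for 48 hours. GI50 = concentration required for 50% inhibition of growth. The concentration for full growth arrest is given as TGI.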

The assay relates to NCI-H322M lung. The experiment in a line: inhibition of tumour cell growth, NCI panel, 48 h.
The molecule `COc1ccc(C2c3cc4c(cc3OC(NCCO)C2C)OCO4)cc1` (stereo not drawn) displayed a TGI of 95.4 µM.
Molecule `Cc1c(C)c(CC(=O)N2CC2)c(C)c(C)c1CC(=O)N1CC1` yielded a TGI of 46.8 µM.
Still for that read-out and setting: next, `O=C1CS(=O)(=O)C(c2cccc(Oc3ccccc3)c2)N1c1cc(Cl)ccc1Cl` (stereo not drawn): > 100 µM.
`COc1nc2c(N3CCCC3)nc(N3CCNCC3)nc2nc1NCc1ccccc1` showed a TGI of 10.1 µM.
As for `COc1cccc2c(=O)c3c(sc12)c(NCCCNCCO)nc1ccccc13`, the GI50 is 1.59 µM and the TGI is 3.12 µM.
Consider `COC(=O)N1N=C(c2ccccc2)C1c1ccccc1` (stereo not drawn), for which the TGI was > 100 µM.
Turning to `CC(C)(C)OC(=O)NC1CCCC1=O` (stereo not drawn), the TGI is > 100 µM.
With `C[C@]12CC[C@@H]3c4ccc(O)cc4CC[C@H]3[C@@H]1C/C(=C\c1ccc(C#N)cc1)C2=O`, the TGI was > 100 µM.
Regarding `O=C1c2cccc3cccc(c23)C(=O)N1O`, the TGI is > 100 µM.
As to `Cc1cc2c(cc1Cl)S/C(=C/C(=O)O)C(Nc1cccc3nsnc13)=NS2(=O)=O`, the GI50 is 52.9 µM and the TGI is > 72.1 µM.
On to `Cn1c(=O)nc2n(-c3ccc(Cl)c(C(F)(F)F)c3)c3ccccc3nc-2c1=O`, for which the TGI is > 86 µM.
The molecule `COc1ccc2c(NCCCCCCNc3c4ccccc4nc4cc(OC)ccc34)c3ccccc3nc2c1` showed a TGI of 3.31 µM.
With `O=C1c2ccccc2-c2c1c1c(NCCCO)nc3ccccc3c1n2Cc1ccccc1`, the GI50 is 22.1 µM and the TGI was determined as 68 µM.
Consider `COC(=O)C1C(=O)N(CCc2c[nH]c3ccccc23)C[C@@H]2CCC(=O)C[C@H]12` (stereo partly drawn), for which the TGI is > 100 µM.
In the case of `O=c1[nH]c2cc([N+](=O)[O-])ccc2nc1/C(=N\Nc1ccccc1)C(O)c1ccc2c(c1)OCO2` (stereo not drawn), the TGI was > 100 µM.
For the molecule `Cc1ccc(C)c(N2C(=O)C(=O)C(c3nc4ccccc4s3)C(=Nc3cccc4c(=O)[nH][nH]c(=O)c34)C2=O)c1` (stereo not drawn), the TGI is > 100 µM.
Regarding `CCOc1ccc(Nc2c3ccccc3nc3ccccc23)cc1`, the GI50 is 2.04 µM and 1.46 µM; the TGI was 14.8 µM and 11.2 µM.
Consider `O=C1C=CC(=O)C(CNc2ccc(C(=O)OCc3ccccc3)cc2)=C1`, for which the TGI was > 84.5 µM.
In turn, `C[n+]1c(/C=C/c2ccc(O)c3ncccc23)[se]c2ccccc21` had a TGI of 21.6 µM.
Still for that read-out and setting: under `CCNc1ncnc2sc(SCc3ccccc3)nc12` stands > 100 µM; under `COc1ccc(-c2c(C3=NCCCN3)nnn2-c2ccc([N+](=O)[O-])cc2)cc1`, > 100 µM.
Same read-out and setting: under `c1ccc([P+](CCCCCCCC[P+](c2ccccc2)(c2ccccc2)c2ccccc2)(c2ccccc2)c2ccccc2)cc1` stands > 100 µM.
On the same count and under the same terms, next, `C=CCN1C(=O)/C(=C/c2ccc(C)cc2)N=C1SC1OC(COC(C)=O)C(OC(C)=O)C(OC(C)=O)C1OC(C)=O` (stereo not drawn): > 100 µM.
As for `O=c1c2ccccc2sc2ccccc12`, the TGI was > 100 µM.
`Cc1cccc(N(CC(=O)O)S(=O)(=O)c2ccccc2)c1`: the TGI was > 100 µM.
Consider `c1ccc(-c2nc(N3CCCNCC3)c3nc(-c4ccccc4)oc3n2)cc1`, for which the GI50 was 1.58 µM and the TGI was found to be 2.95 µM.
As for `O=C(/C=C/c1ccc2c(c1)OCO2)Cc1nc2ccccc2[nH]c1=O`, the TGI is > 100 µM.
As for `Clc1ccc(/C(=C\c2ccccc2)Cn2ccnc2)cc1`, the TGI is 92.6 µM.
Turning to `CCOC(=O)N1CCN(CCCCCOc2ccccc2C2CCCCC2)CC1`, the GI50 is 13.9 µM and the TGI came to 28.4 µM.
On to `COc1ccc2c(c1)c(=O)c1c(NCCNCCO)ccc3c(=O)n(CCN(C)C)c(=O)n2c31`, for which the TGI came to 0.394 µM.
As to `O=C(O)CCCCCCCCC(=O)O`, the TGI was > 500 µM.
As to `O=C(c1cccs1)C1NO[N+]([O-])=C1c1cccs1` (stereo not drawn), the GI50 is 24.7 µM and the TGI is > 57.2 µM.
As to `COc1cccc2c1OCC1Cc3ccccc3OC21` (stereo not drawn), the TGI was > 100 µM.
For `c1cnn2ncc(-c3ccnc(Nc4ccc5c(c4)OCCO5)n3)c2c1`, the GI50 is 0.0896 µM.
On to `CC1=NN(C(=O)c2ccncc2)C(=O)C1N=Nc1ccc(F)cc1` (stereo not drawn), for which the TGI is > 100 µM.
In the case of `CCN1C(=O)C(=C/C=C/c2ccc(N(CC)CC)cc2)C(=O)N(CC)C1=S`, the TGI is > 100 µM.
`CCOC(=O)C1(Cc2ccc3ccccc3c2)CCCCC(=O)N1` (stereo not drawn): the TGI was > 100 µM.
Same read-out and setting: next, `Nc1ccc(-c2nn3c(COc4ccc(Cl)cc4)nnc3s2)cc1`: > 100 µM.
Regarding `O=C1/C(=C/c2ccc([N+](=O)[O-])cc2)COc2ccc(O)cc21`, the GI50 is > 100 µM and the TGI was > 100 µM.
For `CC1c2ccccc2N=C2SC(=S)N3CCN=C3N21` (stereo not drawn), the GI50 is > 100 µM and the TGI is > 100 µM.
For the molecule `CCN(CCCl)c1cc(CN(C)C)cc(NC(=O)c2ccc(C(=O)Nc3cccc(CN(C)C)c3)cc2)c1`, the TGI came to 7.47 µM.
Turning to `O=C(O)/C=C\C(=O)Nc1ccc(S(=O)(=O)c2ccc(NC(=O)/C=C\C(=O)O)cc2)cc1`, the TGI is > 100 µM.
Same read-out and setting: under `COc1c(O)c(OC)c2oc(-c3ccc(O)cc3)c(OC)c(=O)c2c1O` stands > 100 µM; under `CON(C)C(=O)C1CCCO1` (stereo not drawn), > 100 µM.
Take `Cc1cc(C)c(/C=C(\C(=C/c2c(C)cc(C)cc2C)[N+](=O)[O-])[N+](=O)[O-])c(C)c1`: the TGI is > 100 µM.
With `O=C1C2=Nc3ccccc3C(O)(C(=O)O)N2c2ccccc21` (stereo not drawn), the TGI was > 100 µM.
With `CCCCCCC(C)CCCCCCCCCCC(=O)O` (stereo not drawn), the TGI is > 100 µM.
In turn, `Nc1nc(Nc2ccccc2)sc1C(=O)c1ccco1` registered a TGI of 57.8 µM.
The same measure, in the same setting: next, `C=CC1=C(C)C2=NC1=CC1=NC(=CC3=C(C)C4=C(O)[C@H](C(=O)OC)C(=C5NC(=C2)[C@@H](C)[C@@H]5CCC(=O)O)C4=N3)C(CC)=C1C`: > 100 µM; `C/C(=N\Nc1nc2ccccc2s1)c1ccc2ccccc2n1`: > 100 µM.
For `O=[N+]([O-])c1cccc2c(N=Nc3ccc4ccccc4c3O)c(O)cc(S(=O)(=O)O)c12`, the TGI is > 100 µM.
As to `COc1ccc2[nH]c(-c3ccc(O)cc3)cc(=O)c2c1`, the TGI was > 100 µM.
For `Cc1nc(-c2cccnc2)sc1C(=O)/C=C/c1cccc([N+](=O)[O-])c1`, the TGI was > 100 µM.
For `O=C(OCC1OC(n2nc(Cn3nnc(-c4cccnc4)n3)n(-c3cccc4ccccc34)c2=S)C(OC(=O)c2ccccc2)C1OC(=O)c1ccccc1)c1ccccc1` (stereo not drawn), the TGI was > 100 µM.
In the case of `Cc1cccc(/C(Br)=C2/OC(=O)c3ccccc32)c1`, the TGI was > 100 µM.
`C=C1C(=O)C23C(O)CC4C5(C)CCCC4(C(O)OC5)C2C(OC(C)=O)CC1C3O` (stereo not drawn) came in with a TGI of 23.8 µM.
`Cc1ccc(NC(=O)/C(Cc2nc3ccc([N+](=O)[O-])cc3[nH]c2=O)=N\NC(=O)C[n+]2ccccc2)c(C)c1`: the TGI was > 100 µM.
As for `Cc1cccc(N=Nc2ccc(N=Nc3c(O)ccc4ccccc34)cc2C)c1`, the TGI was > 100 µM.
Regarding `CC(C)C(N)C(=O)NC(CCC(=O)NCCCCC(N)C(=O)NCCCNc1ccc([N+](=O)[O-])c2[nH]c3ccccc3c(=O)c12)C(N)=O` (stereo not drawn), the TGI is > 100 µM.
For `C(=C\c1ccccc1)/COc1ccccc1C(N1CCOCC1)n1nc2ccccc2n1` (stereo not drawn), the TGI was 44.6 µM.
`CC(=O)n1nc(-c2ccccc2)n(/N=C/c2ccc([N+](=O)[O-])o2)c1=O` came in with a TGI of 35.3 µM.
In the case of `COc1ccc(Nc2nccc(N3CCN(c4c5ccc(Cl)cc5nc5ccc(OC)cc45)CC3)n2)cc1`, the GI50 was 88.1 µM and the TGI is > 100 µM.
On the same counts, the results for `COc1cc2nc(-c3ccc(C(F)(F)F)cc3)cc(OCCCN3CCCC3)c2cc1OC` are 4.53 µM and 21.7 µM.
As to `C[C@H]1[C@H](C)CC[C@]2(C(=O)OC3OC(CO)C(O)C(O)C3O)CC[C@]3(C)C(=CC[C@@H]4[C@@]5(C)C[C@H]6OC(=O)c7cc(O)c(O)c(O)c7-c7c(cc(O)c(O)c7O)C(=O)O[C@@H]6C(CO)(CO)[C@@H]5CC[C@]43C)[C@H]12` (stereo partly drawn), the TGI is > 100 µM.
As to `Cc1ccccc1/C=C/C(=O)c1ccccc1`, the TGI was 35 µM.
As to `CCOC(=O)NC(Nc1c(F)c(F)c(F)c(F)c1F)(C(F)(F)F)C(F)(F)F`, the TGI is > 100 µM.
`COc1ccc(Oc2cnn(C(Br)(Br)C(C)=O)c(=O)c2Br)cc1`: the TGI is > 100 µM.
Consider `N#CC(C#N)=c1c2nsnc2c(=C(C#N)C#N)c2nsnc12`, for which the TGI was determined as 3.12 µM.
Still for that read-out and setting: under `COc1ccccc1NC(=O)/C(=C/c1ccccc1)C(C)=O` stands > 100 µM.
For the molecule `COc1cc(/C=C2\CCC(C)/C(=C\c3cc(OC)c(OC)c(OC)c3)C2=O)cc(OC)c1OC` (stereo not drawn), the TGI is > 100 µM.
`Nc1ccccc1C(=O)C(Br)C(Br)c1ccc2c(c1)OCO2` (stereo not drawn): the TGI is > 100 µM.
The same measure, in the same setting: next, `C=CC(=O)N1C/C(=C\c2ccc(Cl)cc2)C(=O)/C(=C/c2ccc(Cl)cc2)C1`: 3.13 µM.
In the case of `Fc1ccc2nc(-c3cc(-c4ccc5c(c4)OCO5)n[nH]3)[nH]c2c1`, the GI50 is 6.3 µM and the TGI is > 100 µM.
In turn, `C[C@]12C/C(=C/O)C(=O)C(O)=C1CC[C@@H]1C2CC[C@@]2(C)C1CC[C@@H]2O` (stereo partly drawn) displayed a TGI of 48.7 µM.
`CC(C)=CCC[C@@H](C)C1=C(O)C(N)=C(C)C(=O)C1=O`: the TGI is > 100 µM.
For the molecule `Clc1ccc2c(c1)N(c1ncnc3ccc(-c4cnc5[nH]ncc5c4)cc13)CC2`, the GI50 is 0.412 µM and the TGI was > 100 µM.
In the case of `COc1ccc(-n2nc(C)c3c(Nc4ccc(NC(=O)Nc5ccc(Cl)c(C(F)(F)F)c5)cc4)ncnc32)cc1`, the GI50 is 1.75 µM and the TGI stood at 5.47 µM.
With `CN1c2ccccc2SC2C(c3ccccc3)=NOC21` (stereo not drawn), the TGI is > 100 µM.
Still for that read-out and setting: next, `O=C1CNS(=O)(=O)N1`: > 100 µM; `Cc1ccc2oc(=O)c(-c3ccccc3)nc2c1`: 86.2 µM.
Same read-out and setting: next, `CC(C)(C)c1ccc(OC2CCO2)cc1` (stereo not drawn): > 100 µM; `O=C(NN1C(=O)CSC1c1cccc(F)c1)c1ccncc1` (stereo not drawn): > 100 µM.
`CC1(C)CC(=O)C(CC2C(=O)c3ccccc3C2=O)C(=O)C1`: the TGI was > 100 µM.
Take `Clc1nncc2sc(-c3ccccc3)nc12`: the TGI was determined as 46.8 µM.
For `O=C(Cl)C1=C(c2ccccc2)C1c1ccccc1` (stereo not drawn), the TGI is > 100 µM.
Still for that read-out and setting: under `CCN(CC)CCO/N=C1\CC[C@H]2[C@@H]3CCc4cc(OC)ccc4[C@H]3CC[C@]12C` stands 7.71 µM; under `O=C(O)CN(CC(=O)O)C(C(=O)O)c1ccccc1` (stereo not drawn), > 100 µM.
Take `O=C1c2ccccc2-c2c1c1ccccc1c(=O)n2CCNCCn1c2c(c3ccccc3c1=O)C(=O)c1ccccc1-2`: the GI50 is > 25 µM and the TGI is > 25 µM.

(Values after PubChem BioAssay (NCI).)
